Reference: PubChem BioAssay AID1347120 (National Center for Advancing Translational Sciences (NCATS), 2019)
The whole screen tested about 390,000 compounds, of which about 930 (0.24%) were called active. This list was built around the results that the source calls inconclusive (neither active nor inactive); the mix of calls is not that of the screen. The call rests on the fitted dose curve; in most records, active means well fitted activation curve with a large enough effect; inconclusive means small, poorly fitted or top-dose-only effect; inactive means no such curve, though single readings can be large or run the other way. Where the call is inconclusive, the potency comes from a doubtful curve fit.

Assay: qHTS for Suppressors of FUS Proteinopathy: Primary screen using FUS-linked yeast assay; further: nearly all actives have a fitted effect of over 55% in size;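 on growth rescue (activation): plate controls were DMSO vehicle for no effect and reference control for full effect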
Conditions: S. cerevisiae FUS-expressing, OD600, 24 h; Potency: growth rescue; growth rescue (activation): at 76.6 µM (top of the series)
How it was run: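 Absorbance at 600 nm, taken 24hr after compound addition, measured rescue of FUS-yeast growth at 30C. Induction used 2% galactose with seeding at OD 0.005. Controls: CP55940 from 92uM final, DMSO only.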
Potency means the concentration at half of the fitted maximal effect; tags describe the fitted curve by direction and shape.

Compound	Potency	growth rescue (activation)
C=CCN1[C@@H](C)COc2cc(F)ccc2S1(=O)=O	inactive	–
Cc1c2cnn(-c3ccccc3)c(=O)c2c(C)n1C(C)C(=O)NCc1cccc(Br)c1 (stereo unspecified)	inconclusive: 50.1 µM [activator, single point]	–
Cc1ccc(NC(=O)CC(=O)Nc2ccc(C)cc2C)c(C)c1	inactive	–
O=S(=O)(c1ccc(F)cc1)c1snnc1-c1ccccc1	inactive	–
COc1ccc(-n2nc(-c3ccc(C)cc3)c3cnc4cc(F)c(F)cc4c32)cc1	inactive	–
CCOc1ccccc1OCC(=O)OCC(=O)Nc1ncc(Cl)cc1Cl	inactive	–
Cc1nnsc1C(=O)NC1CCCc2c1cnn2-c1ccc(C(C)(C)C)cc1 (stereo unspecified)	inconclusive: 17.8 µM [activator, partial curve, poor fit]	–
C=CCOc1ccc(C(c2c(C(=O)O)[nH]c3ccccc23)c2c(C(=O)O)[nH]c3ccccc23)cc1	inconclusive: 22.4 µM [activator, single point]	–
CN(C(=O)c1ccc(Oc2ccc([N+](=O)[O-])cc2)cc1)C1CCCCC1	inconclusive: 50.1 µM [activator, single point]	–
Cc1ccc(C)c(N(CC(=O)NC2CCCCC2)C(=O)CNC(=O)c2ccco2)c1	inconclusive: 11.2 µM [activator, partial curve, poor fit]	–
O=c1[nH]c2cc3c(cc2cc1CN(Cc1cccnc1)Cc1nnnn1Cc1ccco1)OCCO3	inconclusive: 15.8 µM [activator, partial curve, poor fit]	–
COc1cc(NC(=O)Nc2nc(C(N)CCc3ccccc3)cs2)cc(OC)c1OC (stereo unspecified)	inconclusive: 44.7 µM [activator, single point]	–
O=C1c2c(O)ccc(O)c2C(=O)c2c(NCCNCCO)ccc(NCCNCCO)c21	active: 28.2 µM	–
O=C(Nc1ccc(F)c(Cl)c1)c1cc(C2CCCCN2C(=O)c2cccs2)on1 (stereo unspecified)	inconclusive: 50.1 µM [activator, single point]	–
CCc1ccc(C(=O)NNC(=O)C2CCN(c3ncnc4sc(C)c(C)c34)CC2)cc1	inconclusive: 35.5 µM [activator, partial curve]	–
CCOc1cc(C(=O)N2CCC(CC3CC(c4ccc(Cl)cc4)=NO3)(C(=O)NCC3CCCCC3)CC2)cc(OCC)c1OCC (stereo unspecified)	inconclusive: 17.8 µM [activator, partial curve, poor fit]	–
CC(C)=CCC[C@](C)(O[C@@H]1O[C@H](CO[C@@H]2OC[C@@H](O)[C@H](O)[C@H]2O)[C@@H](O)[C@H](O)[C@H]1O)C1CC[C@]2(C)C1[C@H](O)CC1[C@@]3(C)CC[C@H](O[C@@H]4O[C@H](CO)[C@@H](O)[C@H](O)[C@H]4O)C(C)(C)C3CC[C@]12C (stereo partly specified)	active: 15.8 µM	–
COc1ccc(F)cc1C1=CC(=O)C[C@H](c2ccc3c(c2)OCO3)C1	inactive	–
COc1ccc(C)cc1NC(=O)CN1C(=O)CSc2ccc(S(=O)(=O)N3CCCC3)cc21	inconclusive: 25.1 µM [activator, partial curve, poor fit]	–
Cc1ccc(O)c(N=CC2=C(O)c3ccccc3C2=O)c1	inconclusive: 4.47 µM [activator, full curve, poor fit]	–
C=C1[C@@H](O)[C@@H]2O[C@]3(CC[C@H](/C=C/[C@@H](C)[C@@H]4CC(C)=CC5(O[C@H](C[C@@](C)(O)C(=O)OC)CC[C@H]5O)O4)O3)CC[C@H]2O[C@@H]1[C@@H](O)C[C@H](C)[C@H]1OC2(CCCCO2)CC[C@H]1C (stereo partly specified)	inconclusive: 12.6 µM [activator, partial curve, poor fit]	–

Compound	Potency	growth rescue (activation)
CC1(C)CC(=O)C2=C(C1)c1c(ccc3ccccc13)NC2c1ccco1 (stereo unspecified)	inactive	–
COc1ccccc1S(=O)(=O)NCc1ccc(C(=O)N(C)Cc2ccc(F)cc2)cc1	inconclusive: 50.1 µM [activator, single point]	–
COc1ccc(C2Nc3ccccc3-n3c(-c4ccccc4)c4c(=O)n(C)c(=O)n(C)c4c32)cc1 (stereo unspecified)	inconclusive: 31.6 µM [activator, partial curve, poor fit]	–
COc1cccc(CN(C(=O)c2oc3ccc(Br)cc3c2C)C2CCS(=O)(=O)C2)c1 (stereo unspecified)	inconclusive: 12.6 µM [activator, partial curve, poor fit]	–
O=C(Nc1ccc(F)cc1F)c1c(C(F)(F)F)ccnc1Oc1ccc(Cl)cc1	inconclusive: 12.6 µM [activator, partial curve]	–
O=C(OCc1cn(Cc2ccc(C(F)(F)F)cc2)nn1)N1CCOCC1	inactive	–
Cc1ccc(-n2c(COc3cccc(C)c3)n[nH]c2=S)cc1	inactive	–
CCC(=O)N1CCN(c2ccccc2NC(=O)COc2ccc(C(C)C)cc2)CC1	inconclusive: 28.2 µM [activator, single point]	–
COc1cccc(C2CC(C(F)(F)F)n3ncc(C(=O)Nc4c(C)n(C)n(-c5ccccc5)c4=O)c3N2)c1 (stereo unspecified)	–	inconclusive: 78.4% [activator]
CN1CCC(=NNC(=O)CN(c2cccc([N+](=O)[O-])c2)S(=O)(=O)c2ccccc2)CC1	inconclusive: 10 µM [activator, partial curve, poor fit]	–
COc1ccc(OC)c(NC(=O)CN2CCC(C(=O)c3ccc(C)cc3)CC2)c1	inconclusive: 31.6 µM [activator, partial curve, poor fit]	–
CSc1ccc(CNC(=O)C2CCN(c3nnc(-n4cccc4CNc4ccc(C)cc4)s3)CC2)cc1	active: 35.5 µM	–
CCCn1c2c(c(O)c(C(=O)Nc3ccc(OC)cc3)c1=O)CCCC2	inactive	–
CCc1ccc(CNC(=O)CN(c2ccc(C)cc2)S(=O)(=O)N(C)C)cc1	inactive	–
COc1cccc(/C=C/C(=O)c2cccc([N+](=O)[O-])c2)c1	inactive	–
CC(C)(C)C1CCc2c(sc(NC(=O)C3CCCO3)c2C(N)=O)C1 (stereo unspecified)	inconclusive: 50.1 µM [activator, single point]	–
CCCCOCCCNC(=O)C[C@H]1C[C@@]2(C(=O)OC)C(=C[C@H](C(C)C)O[C@@H]2C2CC2)N(Cc2ccc3c(c2)OCO3)C1=O	inconclusive: 22.4 µM [activator, partial curve, poor fit]	–
Cc1cc(=O)[nH]c(N/N=C/c2ccccc2Cl)n1	inactive	–
COc1cc(NC(=O)N2CCc3nc(Nc4cc(Cl)cc(Cl)c4)ncc3C2)cc(OC)c1OC	inconclusive: 31.6 µM [activator, partial curve, poor fit]	–
O=C(CCc1cn(Cc2ccccc2Cl)c2ccccc12)NC1CCCCC1	inactive	–
Cc1cccc(-n2ccc(=O)c(C(=O)Nc3ccc(S(=O)(=O)Nc4nccc(C)n4)cc3)n2)c1	inconclusive: 12.6 µM [activator, partial curve, poor fit]	–

Compound	Potency	growth rescue (activation)
COc1cccc(C(C)(O)c2nc(-c3cc4ccccc4o3)cs2)c1 (stereo unspecified)	inconclusive: 31.6 µM [activator, single point]	–
O=C(O)C/C(=C\c1ccc(N2CCOCC2)c([N+](=O)[O-])c1)c1nc2ccccc2s1	inconclusive: 17.8 µM [activator, single point]	–
CC(C)(C)OC(=O)C[C@@H]1C/C=C\C[C@@H](CC(=O)N[C@@H](CO)Cc2ccccc2)C(=O)N2CCC[C@@H]2COC1=O	inconclusive: 50.1 µM [activator, single point]	–
COc1cc(-c2coc3c(C(=O)NC4CCCCC4)cccc23)ccc1O	inconclusive: 50.1 µM [activator, single point]	–
O=C(Nc1ccccc1N1CCN(C(=O)c2ccc(Cl)cc2)CC1)c1ccc2c(c1)OCO2	inconclusive: 25.1 µM [activator, partial curve]	–
Cc1cccc(NC(=O)Nc2c(-c3ccc(C(F)(F)F)cc3)nc3ncccn23)c1	inactive	–
CCOC(=O)c1cc(C#N)c(N2CCCC2)nc1-c1ccccc1	inactive	–
COC(=O)C[C@@H]1CC[C@@H]2[C@H](COc3ccc(NC(=O)c4ccc(F)c(F)c4)cc3C(=O)N2C)O1	inactive	–
CCCNC(=O)c1ccc(N2CCC3(CC2)CC(c2cccc(Br)c2)=NO3)c(NC(=O)c2c(Cl)cccc2Cl)c1	inconclusive: 17.8 µM [activator, partial curve, poor fit]	–
C=CCNC(=O)c1ccc2nccnc2c1	inactive	–
CCOc1ccc(-c2cc(-c3nc(-c4cc(OC)c(OC)c(OC)c4)no3)[nH]n2)cc1Cl	inactive	–
C[C@@H]1CCCCO[C@H](CN(C)C(=O)NC2CCCCC2)[C@@H](C)CN([C@H](C)CO)C(=O)c2cc(NC(=O)c3ccccc3)ccc2O1	inconclusive: 25.1 µM [activator, single point]	–
COc1cc2c(cc1OC)C(COc1ccc(F)cc1)N(C(=O)c1ccc(S(=O)(=O)N3CCCC3)cc1)CC2 (stereo unspecified)	inconclusive: 11.2 µM [activator, partial curve]	–
Cc1ccc2nc(N3CCN(c4ccccc4F)CC3)c(C=O)c(=O)n2c1	inactive	–
Cc1ccc(C(=O)CC(=O)c2cc(Cl)ccc2O)cc1	inconclusive: 25.1 µM [activator, partial curve, poor fit]	–
COc1cc2c(cc1OC)C(c1cccs1)N(C(=O)c1ccc(S(=O)(=O)N(C)C)cc1)CC2 (stereo unspecified)	inconclusive: 35.5 µM [activator, single point]	–
CCOC(=O)C1=C(C)NC(C)=C(C(=O)OC)C1c1cccc(Cl)c1Cl (stereo unspecified)	inconclusive: 35.5 µM [activator, single point]	–
Nc1c(Cl)ncnc1NCCc1ccc(O)cc1	inactive	–
COc1ccc(Br)cc1C=NNC(=O)c1ccncc1	inactive	–
